Results on 1 molecule are retold here after patent publication US20220411536A1 (NUMAB THERAPEUTICS, published 2022).

In assay [1] the target is T1, recombinant human IL-23R (custom-made by Trenzyme) (human, UniProt Q5VWK5 24-355).
T1 sequence (looked up): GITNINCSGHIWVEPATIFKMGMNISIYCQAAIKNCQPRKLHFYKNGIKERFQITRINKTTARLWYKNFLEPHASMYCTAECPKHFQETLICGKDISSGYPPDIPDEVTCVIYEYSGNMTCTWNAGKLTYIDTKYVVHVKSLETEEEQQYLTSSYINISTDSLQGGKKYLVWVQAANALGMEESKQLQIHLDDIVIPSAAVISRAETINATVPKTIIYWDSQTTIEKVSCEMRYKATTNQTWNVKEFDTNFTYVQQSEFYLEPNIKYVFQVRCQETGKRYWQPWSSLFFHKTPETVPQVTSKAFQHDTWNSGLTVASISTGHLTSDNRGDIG
In words: SPR, immobilised IL-23R. (SPR reads the build-up and loss of mass on a sensor chip optically.)

Assay [2] has as its target T2, Fc-tagged human PD-L1 extracellular domain (SinoBiological, cat. 10084-H02H) (human, UniProt Q9NZQ7 in part).
T2 construct: extracellular domain; also called hPD-L1; not shown: Fc tag of the bought protein
T2 sequence (Q9NZQ7 19-238): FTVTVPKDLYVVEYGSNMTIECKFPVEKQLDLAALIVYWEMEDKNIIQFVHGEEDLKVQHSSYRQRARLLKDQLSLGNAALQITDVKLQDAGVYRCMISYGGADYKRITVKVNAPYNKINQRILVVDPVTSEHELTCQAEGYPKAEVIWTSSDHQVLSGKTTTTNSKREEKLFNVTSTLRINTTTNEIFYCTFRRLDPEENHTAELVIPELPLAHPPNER
In words: SPR, captured Fc-PD-L1 ECD.

The target of assay [3] is CD3e on Jurkat PD-1 NFAT reporter T cells or on T cells of human PBMCs (human, UniProt P07766). In words: cell-based or functional assay.
In assay [4] the target is T3, recombinant human CD3E ECD (SinoBiological, cat. 10977-H08H) (human, UniProt P07766 23-126).
T3 construct: extracellular domain; bought protein; also called CD3s
T3 sequence (P07766 23-126): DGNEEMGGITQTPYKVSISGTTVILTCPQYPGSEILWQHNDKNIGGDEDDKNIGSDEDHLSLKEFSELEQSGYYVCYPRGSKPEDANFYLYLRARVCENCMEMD
In words: SPR, immobilised CD3e ECD, two-state model (ka1).

The target in assay [5] is T3, recombinant human CD3E ECD …. In words: SPR, immobilised CD3e ECD, two-state model.
Assay [6] has the same target. Kind of assay: SPR, immobilised CD3e ECD, two-state model (kd1).

B1: PRO1548 (multispecific antibody)
chain 1: [not shown - about 100 residues]RTVAAPSVFIFPPDVVMTQSPSSLSASVGDRVTITCQASQIISSRSAWYQQKPGQPPKLLIYQASKLASGVPSRFSGSGSGTDFTLTISSLQPEDFATYYCQCTYIDSNFGAFGCGTKLTVLGTVAAPSVFIFPPSDEQLKSGTASVVCLLNNFYPREAKVQWKVDNALQSGNSQESVTEQDSKDSTYSLSSTLTLSKADYEKHKVYACEVTHQGLSSPVTKSFNRGECGGGGSGGGGSDIQMTQSPSSLSASVGDRVTITCQSSQSVFSNNYLAWFQQKPGQSPKRLIYSASTLASGVPSRFSGSGSGTDFTLTISSLQPEDFATYYCLGSYACSSADCYVFGTGTKVTVLGGGGGSGGGGSGGGGSGGGGSEVQLVESGGGLVQPGGSLRLSCAASGFSLSSYDMSWVRQAPGKGLAWIGASYASGPTYYASWAKGRFTISRDNSKNTVYLQMNSLRAEDTATYFCARGGWTGTSHSNIWGQGTLVTVSS
chain 2: [not shown - about 120 residues]ASTKGPSVFPLAPEVQLVESGGGLVQPGGSLRLSCAASGFSFSSSYWICWVRQAPGKCLEWVGCVFTGDGTTYYASWAKGRFTISRDNSKNTVYLQMNSLRAEDTATYFCARPVSVYYYGMDLWGQGTLVTVSSASTKGPSVFPLAPSSKSTSGGTAALGCLVKDYFPEPVTVSWNSGALTSGVHTFPAVLQSSGLYSLSSVVTVPSSSLGTQTYICNVNHKPSNTKVDKKVEPKSCGGGGSGGGGSIQMTQSPSSLSASVGDRVTITCQASENIYSFLAWYQQKPGKAPKLLIYSASKLAAGVPSRFSGSGSGTDFTLTISSLQPEDFATYYCQQTNRYSNPDIYNVFGTGTKVTVLGGGGGSGGGGSGGGGSGGGGSEVQLVESGGGLVQPGGSLRLSCAASGIDFNSNYYMCWVRQAPGKGLEWIGCIYVGSHVNTYYANWAKGRFTISRDNSKNTVYLQMNSLRAEDTAVYYCATSGSSVLYFKFWGQGTLVTVSS
Turning to B1, in assay [1], the Kd – broadly, the constant that tells how readily two partners part at equilibrium – came to 0.985 nM; the off-rate (koff) (in general, the rate constant with which the complex falls apart) was determined as 0.000236 s⁻¹; the kon (in general, a measure of how fast the partners come together) is 240000 M⁻¹ s⁻¹. For the same molecule, the binding result in assay [2] is reported as “no binding”. Also, in assay [3], the “IC50, NFAT reporter, HCC1954 cells” value is 0.325 nM and the “rel. max. activation vs PRO1497, NFAT reporter, HCC1954 cells” value is 86%. Also, the kon in assay [4] was determined as 282000 M⁻¹ s⁻¹. In assay [5], the KD1 came to 14.4 nM, the dissociation constant (Kd) is 8.28 nM and the kd2 worked out at 0.00129 s⁻¹. The koff in assay [6] amounted to 0.00406 s⁻¹.
